We go through 43 compounds from ChEMBL document CHEMBL4888484, “Replenishing the malaria drug discovery pipeline: Screening and hit evaluation of the MMV Hit Generation Library 1 (HGL1) against asexual blood stage Plasmodium falciparum ,using a nano luciferase reporter read-out” (2022).

One may read the % Inhibition as the change of the read-out against control, counted positive when it falls.

In all, about 150,000 compounds went through this assay and about 540 (0.36%) showed an effect of 50% or more. The list shows a part of the results.

The test deals with Plasmodium falciparum. Put plainly: Primary screen in NF54 nanoGlo assay, in single point, at 2uM, 72h; a lower Z score goes with more inhibition. It is filed as functional, Erythrocyte. To be noted: timepoint 72 hour.

As for `NC(=O)Cc1nc([C@@H](O)Cc2ccccc2)n(CC(F)(F)F)n1`, the “% Inhibition” value is -16% and the Z score is reported as 2.25.
Taken in the same sequence, the figures for `COc1ccccc1-c1n[nH]c(C2CC2)c1NC(=O)c1ccc(F)cc1` were -2% and 0.29.
As for `Cc1cc(C(=O)Nc2ccc3c(c2)OCO3)c(C)o1`, the “% Inhibition” value is on record as -19% and the Z score is on record as 1.67.
In the case of `O=C(CCc1ccccn1)NC[C@@]12CCC[C@@H]1OCC2`, the “% Inhibition” value was -9% and the Z score came to 1.13.
Turning to `O=C1Nc2ccccc2C(O)=NC1CC(=O)N1CCCC(c2nnc3ccccn23)C1` (stereo unspecified), the “% Inhibition” value was -4% and the Z score is given as 0.5.
Taken in the same sequence, the figures for `CC(C(=O)N[C@@H]1C[C@H]1c1c(F)cccc1Cl)n1nnnc1C(C)(C)C` (stereo partly specified) were -1% and 0.09.
Taken in the same sequence, the figures for `O=C(NCCNc1ncccn1)c1cc(Cl)c2c(c1)OCCCO2` were -12% and 2.18.
As to `Cc1nccn1Cc1coc(-c2ccc(C(F)(F)F)cc2)n1`, the “% Inhibition” value is listed as -13% and the Z score came out at 1.19.
With `COc1nc(NCC[C@H]2CCCCN2C)ncc1F`, the “% Inhibition” value came to 3% and the Z score is -0.58.
In the case of `Cc1ccc(OC2CN(C3CCNCC3)C2)cc1`, the “% Inhibition” value is reported as 3% and the Z score is listed as -0.62.
The matching figures for `Cn1cc(NS(=O)(=O)c2ccnn2C2CCC2)c(-c2ccco2)n1`: -4% and 0.81.
The matching figures for `CCN1c2ccccc2C(=O)NC12CCN(C(=O)Nc1ccc(F)c(Cl)c1)CC2`: -1% and 0.16.
Taken in the same sequence, the figures for `Cc1cnc(C(=O)Nc2ccccc2C(=O)NCCc2ccccc2)cn1` were -10% and 1.14.
In the case of `COCCNCC(=O)N[C@@H](C)c1c(Cl)ccc(F)c1Cl`, the “% Inhibition” value is -2% and the Z score came to 0.4.
The matching figures for `Cc1cc(Cl)ccc1NC(=O)[C@@H]1CCC(=O)N1`: -6% and 0.97.
Take `C[C@H]1CNCCN1C(=O)c1cn(Cc2cccs2)nn1`: the “% Inhibition” value was 7% and the Z score was -1.06.
The matching figures for `CCc1c(C(=O)O)nnn1-c1ccc2c(c1)CCC2`: -16% and 1.76.
The matching figures for `CC(C)c1ccc(N2CCC(C(=O)N3CCOCC3)CC2)nn1`: -4% and 0.77.
As to `NCC[C@H]1CN(c2cc(-c3ccccc3F)nc3ccnn23)CCO1`, the “% Inhibition” value is recorded as -4% and the Z score worked out at 0.52.
`CCNC(=O)N1CCCCC[C@H]1c1nc(COC)no1`: the “% Inhibition” value is given as -7% and the Z score was found to be 1.28.
With `Cc1cc(C)c(C(=O)N2CCC[C@H]2c2nonc2C)c(=O)[nH]1`, the “% Inhibition” value was -1% and the Z score is 0.1.
For `O=C(Nc1c(F)cccc1NC1CC1)c1cnns1`, the “% Inhibition” value is given as -5% and the Z score was 0.99.
Taken in the same sequence, the figures for `CCOc1cccc(CNc2cccc(C)c2C(N)=O)n1` were -9% and 0.98.
The matching figures for `O=c1[nH]c(N2CCC(F)(F)CC2)nc2c1Cc1ccccc1OC2`: 3% and -0.53.
Taken in the same sequence, the figures for `CCCOc1ccc(CN2CC[C@]3(CO)CN(Cc4ccccc4)C[C@@H]3C2)cc1` were 10% and -1.92.
Turning to `Cc1ccc([C@@H]2Cn3nc(C(=O)Nc4ccccc4C)cc3CO2)cc1`, the “% Inhibition” value is -6% and the Z score is listed as 0.83.
Taken in the same sequence, the figures for `CCOC(=O)c1cn(CCc2c[nH]cn2)cc(Oc2ccccc2)c1=O` were 0% and -0.09.
Taken in the same sequence, the figures for `CC1CCC(N(C)C(=O)c2ccc3ccccc3n2)CC1` (stereo unspecified) were -3% and 0.32.
With `Cc1nc(CCNC(=O)[C@H]2CCCN2S(=O)(=O)c2c(C)noc2C)cs1`, the “% Inhibition” value is -17% and the Z score is 2.19.
For the compound `Cc1nc[nH]c1C(=O)N1CCN(Cc2ccccc2)[C@@H]2CS(=O)(=O)C[C@@H]21`, the “% Inhibition” value is -10% and the Z score is recorded as 0.95.
Consider `CN(CCF)S(=O)(=O)c1ccc(F)c(Br)c1F`, for which the “% Inhibition” value is recorded as -13% and the Z score came to 1.93.
On to `CC(=O)N1CC(C(=O)NCc2cccc(C(F)(F)F)c2)CCC1c1cccc(C)c1` (stereo unspecified), for which the “% Inhibition” value is reported as -1% and the Z score worked out at 0.18.
Taken in the same sequence, the figures for `O=C(Nc1ccc(Cl)cn1)C1CC2C=CC1C2` (stereo unspecified) were -12% and 1.73.
For `Cc1ccc(S(=O)(=O)CC(=O)Nc2nnc(-c3cccs3)o2)cc1`, the “% Inhibition” value is listed as -15% and the Z score was 2.78.
The matching figures for `CCOc1cc(N2CCCN(C(=O)c3cccc(F)c3)CC2)ncn1`: -9% and 0.87.
Take `C=CCC(O)(CC=C)CN1CC(=O)N2CC[C@@H](O)C[C@H]2C1=O`: the “% Inhibition” value worked out at 1% and the Z score is reported as -0.17.
Taken in the same sequence, the figures for `COCCO[C@H]1CCCN(C(=O)c2ncoc2C2CC2)C1` were -5% and 0.58.
Consider `Cc1ccc([C@@H]2c3ccsc3CCN2C(=O)CN(C(C)(C)C)S(=O)(=O)c2ccc3ccccc3c2)cc1`, for which the “% Inhibition” value is recorded as -14% and the Z score came out at 1.54.
The matching figures for `Cc1cc(CN(CCn2cccn2)Cc2cc(C)on2)no1`: -3% and 0.42.
The matching figures for `COc1cccc(C(=O)N/C(=N/c2ccc(F)cc2)NCc2ccccn2)c1`: -6% and 0.59.
`COc1ccc(CN2C[C@@H]3C[C@H]2C(=O)N3c2ccccc2F)c(F)c1`: the “% Inhibition” value is -9% and the Z score worked out at 1.26.
The matching figures for `CCCN1CCCN(Cc2cncn2C(C)C)CC1`: -13% and 2.58.
In the case of `O=C(NC[C@@H](c1ccco1)N1CCCC1)N1CCC1`, the “% Inhibition” value is -11% and the Z score was found to be 1.98.
